# Reference: PubChem BioAssay AID1745845 (National Center for Advancing Translational Sciences (NCATS), 2022)
# Where “and” joins values, the source holds several entries; their conditions need not be identical. Equal entries are not always repeated. Hit rate of the full screen: of about 360,000 compounds, about 2,600 (0.72%) were called active. The shares of active, inactive and inconclusive entries below differ from those in the screen. Calls come from the whole dose curve; as a rule, active = well fitted inhibition curve with a large enough effect; inconclusive = small, poorly fitted or top-dose-only effect; inactive = no such curve, though single readings can be large or run the other way. Potencies beside an inconclusive call are fits to weak or partial responses and may not hold up.
# Assay: Primary qHTS for Inhibitors of ATXN expression; note: nearly all actives have a fitted effect of over 55% in size
# Conditions: HEK-293 ATXN2-luciferase reporter, luminescence, 24 h; activity change, negative = inhibition: at 57 µM (top of the series)
# Method in brief: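 qHTS (up to 57 uM final) was run with 24 h compound exposure of reporter cells at 37 °C. Each well was multiplexed: SteadyGlo luminescence measured ATXN2-luciferase expression after a fluorogenic Gly-Phe-AFC viability readout (25 uM final).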
# % is set by controls: 0 for no effect and ±100 for the full control effect; potency is the fitted concentration of half-maximal effect; tags give direction and shape of the fitted curve.
SMILES,Potency,"activity change, negative = inhibition"
CC(C)(C)c1nc2c3cc[nH]c(=O)c3c3cc(F)ccc3c2[nH]1,"inconclusive: 0.273 µM [inhibitor, partial curve, poor fit]",
COc1cc2cnc(-c3ccccc3)c(-c3ccc([N+](=O)[O-])cc3)c2cc1OC,,inactive: 2.11%
C/C(=N\NC(=O)CNc1ccccc1)c1ccccc1,,inactive: 1.86%
Cc1ccc2[nH]c3c(=O)n(CC(=O)N(CCN(C)C)Cc4ccccc4)ncc3c2c1,,inactive: 0%
CCc1nc2c(OCCC3CCCCC3)cccn2c1N(C=O)Cc1ccc(OC)cc1,"inconclusive: 39.8 µM [inhibitor, single point]",
CCN1C(=O)N(C)[C@@H](c2ccccc2)C(C(=O)OC)=C1C,,inactive: 0.127%
Cc1c(C(=O)NCc2ccccn2)sc(=O)n1Cc1ccc(-c2ccccc2)cc1,"inconclusive: 31.6 µM [inhibitor, single point]",
COc1cc(NC(=O)c2ccc([N+](=O)[O-])cc2)ccc1NC(=O)C(C)C,,inactive: 5.89%
O=C(CCC(=O)Nc1ccc(Br)cc1)N/N=C/c1ccccc1O,,inconclusive: -72.9% [inhibitor]
CC(=O)O[C@]1(C(C)=O)CC[C@H]2[C@@H]3C[C@H](C)C4=CC(=O)CC[C@]4(C)[C@H]3CC[C@@]21C,"inconclusive: 35.5 µM [inhibitor, single point] and inconclusive: 39.8 µM [inhibitor, partial curve, poor fit]",
COC(=O)CNC(=O)C(C)NC(=O)OCc1ccccc1 (stereo not drawn),"inconclusive: 28.2 µM [inhibitor, single point]",
CN(C)CCCN(C(=O)CCc1ccccc1)c1nc2ccc(Cl)cc2s1,"inconclusive: 1.06 µM [inhibitor, partial curve, poor fit]",
O=C(Nc1cccc(-c2cn3ccccc3n2)c1)c1cccc(Cl)c1,"inconclusive: 39.8 µM [inhibitor, single point]",
O=S(=O)(O)c1ccc2cc(N=Nc3cc(S(=O)(=O)O)c4cccnc4c3O)ccc2c1,"inconclusive: 21.7 µM [inhibitor, single point]",
COc1ccc2nc(C)cc(SCC(=O)NNC(=O)COc3ccccc3)c2c1,,inactive: 7.84%
CN(C)S(=O)(=O)c1ccc(C(=O)NCCSc2c(-c3ccc(Cl)cc3)[nH]c3ccccc23)cc1,,inactive: -24.6%
C=C1SC(Nc2c(C)cc(C)cc2C)=NC12CCCCC2,,inactive: -10.2%
COC(=O)N1C(=O)[C@@](c2ccccc2)(C2CCCCC2)N1C(=O)OC,"inconclusive: 28.2 µM [inhibitor, single point]",
COc1ccc(C(=O)O/N=C(\N)c2ccccc2)cc1,"inconclusive: 39.8 µM [inhibitor, single point]",
Oc1cccnc1CN1CCCCC1,,inactive: -1.85%
Cc1cccc(Cn2nc(C(C)(C)C)cc2C(=O)Nc2ccc(F)cc2)c1,"inconclusive: 44.7 µM [inhibitor, single point]",
CN(C)CCCN(C(=O)COc1ccccc1)c1nc2cc3c(cc2s1)OCO3,,inactive: -14.9%

SMILES,Potency,"activity change, negative = inhibition"
COc1cccc2c1C(=O)c1c(O)c3c(c(O)c1C2=O)C[C@@](O)(C(=O)CO)C[C@@H]3O[C@H]1C[C@H](N)[C@H](OC2CCCCO2)[C@H](C)O1 (stereo partly drawn),active: 1.53 µM,
C=C(C)CNC(=S)NNC(=O)c1ccco1,,inactive: -0.648%
O=C(Cc1ccccc1)NC(c1ccco1)c1c(O)ccc2ccccc12 (stereo not drawn),"inconclusive: 28.2 µM [inhibitor, single point]",
COc1ccc(S(=O)(=O)Nc2cccc3c2O[C@H](CN(C)Cc2ccc(Cl)c(Cl)c2)[C@@H](C)CN([C@H](C)CO)C3=O)cc1,"inconclusive: 28.2 µM [inhibitor, single point]",
CCOC(=O)c1cnc(-n2nc(C)cc2C)nc1NC1CCCC1,"inconclusive: 7.94 µM [inhibitor, full curve, poor fit]",
CC(C)N(C)c1ncnc2c1ncn2[C@H]1CN(Cc2ccc3c(c2)OCO3)C[C@@H](CO)O1,,inactive: 1.86%
O=C(COC(=O)c1cccc(S(=O)(=O)N2CCN(c3ccccc3)CC2)c1)NCc1ccco1,,inactive: 2.41%
CCc1ccc(NC(=O)C(CC)n2c(=O)c(-c3ccccc3NC(C)=O)nc3ccccc32)cc1 (stereo not drawn),"inconclusive: 28.2 µM [inhibitor, single point]",
O=C(NNC(=S)Nc1ccc(Cl)cc1)c1ccccc1OC(F)F,"inconclusive: 39.8 µM [inhibitor, partial curve, poor fit]",
CCC(C)(C)n1nnnc1CN(Cc1cc2cc(OC)c(OC)cc2[nH]c1=O)C1CCCC1,,inactive: 2.21%
Cc1ccc(C(=O)NCCSc2c(C)[nH]c3ccccc23)cc1[N+](=O)[O-],"inconclusive: 29.9 µM [inhibitor, single point]",
O=C(c1ccccc1)c1nn(-c2ccc(Cl)cc2)c(=O)cc1C(F)(F)F,active: 11.2 µM,
CCc1noc(C)c1C(=O)N1CCSC1=Nc1cccc(Cl)c1C,"inconclusive: 20 µM [inhibitor, partial curve, poor fit]",
CCOc1ccc(S(=O)(=O)c2cn(C)c3cc(OC)c(OC)cc3c2=O)cc1,,inactive: -2.85%
O=C(CSc1nc(-c2ccc(F)cc2)[nH]c1-c1ccc(F)cc1)Nc1ccc2c(c1)OCCO2,"inconclusive: 31.6 µM [inhibitor, single point]",
COc1ccc(NC(=O)C2CCCN(c3nnc(C)c4c(C)n(-c5ccccc5)nc34)C2)cc1Cl (stereo not drawn),active: 12.6 µM,
Cc1cccc(CCN=c2c([N+](=O)[O-])nn(-c3ccccc3)n2O)c1,"inconclusive: 17.8 µM [inhibitor, partial curve, poor fit]",
COc1ccc(CCNc2c3ccccc3nc3ccccc23)cc1OC,"inconclusive: 31.6 µM [inhibitor, single point]",
C=CCN(c1ccccc1OC)S(=O)(=O)c1cccc(C(=O)OCC(=O)c2c[nH]c3ccccc23)c1,,inactive: -18.7%
Cn1c(N)c(C(=O)CSc2nnc(NC3CCCCC3)s2)c(=O)n(C)c1=O,,inactive: -6.57%
O=C(Nc1nnc(S(=O)(=O)N2CCc3ccccc32)s1)c1cccc(Cl)c1,"inconclusive: 39.8 µM [inhibitor, single point]",
